Measurements as given in the supplement of paper PMC7125110.
± gives the standard error. Variants at the background level are over-represented here.

B1: glmS ribozyme (parent)
chain: AUAAAAGCGCCAGAACUACAGAAAUGUAGUUGACGAGGAGGAGGUUUAUCGAAUUUUCGGCGGAUGCCUCCAAA

Columns and labels:
Conditions in all cases: with glucosamine-6-phosphate
glucosamine-6-phosphate [1] = variants of: B1; test: self-cleavage kobs at 40 uM GlcN6P; higher = faster cleavage; RNA array
Method in brief: (§1)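 Sequenced MiSeq chips were the platform: E. coli RNA polymerase transcribed barcoded ribozyme variants on them in situ, and a hybridised Cy3 probe tracked these at 37 °C. After glucosamine-6-phosphate (40 μM to 10 mM) in HEPES/KCl/Mg(OAc)2 buffer was flowed in, tiles were imaged over ~14 h. Signals normalised to baseline and to non-cleaving reference variants were reduced to per-tile medians and fit to one- or two-exponential decays to obtain kobs. kcat and KM were derived through weighted Michaelis–Menten fits across concentrations.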

glucosamine-6-phosphate [2] = variants of: B1; test: self-cleavage kobs at 2500 uM GlcN6P; higher = faster cleavage; RNA array
Method in brief: as §1

glucosamine-6-phosphate [3] = variants of: B1; test: self-cleavage kobs at 10000 uM GlcN6P; higher = faster cleavage; RNA array
Method in brief: as §1

glucosamine-6-phosphate [4] = variants of: B1; test: self-cleavage kobs at 640 uM GlcN6P; higher = faster cleavage; RNA array
Method in brief: as §1

glucosamine-6-phosphate [5] = variants of: B1; test: self-cleavage kobs at 160 uM GlcN6P; higher = faster cleavage; RNA array
Method in brief: as §1

Variant	self-cleavage kobs at 40 uM GlcN6P (glucosamine-6-phosphate [1]) [s⁻¹]	self-cleavage kobs at 2500 uM GlcN6P (glucosamine-6-phosphate [2]) [s⁻¹]	self-cleavage kobs at 10000 uM GlcN6P (glucosamine-6-phosphate [3]) [s⁻¹]	self-cleavage kobs at 640 uM GlcN6P (glucosamine-6-phosphate [4]) [s⁻¹]	self-cleavage kobs at 160 uM GlcN6P (glucosamine-6-phosphate [5]) [s⁻¹]
AUAAAAGCGCCAGAACUACAGAAAUGUAGUUGACGAGGAGGAGGUUUAUCGUAGUGCCGGCGGAUGCCUCCAAA	< 1e-05	< 1e-05	< 1e-05		
AUAAAAGCGCCAGAACUACAGAAAUGUAGUUGACGAGGAGGAGGUUUAUCGUAUUUUCUGCGGAUGCCUGCAAA	< 1e-05	< 1e-05	< 1e-05		
AUAAAAGCGCCAGAACUACAGAAAUGUAGUUGACGAGGAGGAGGUUUAUCGAAUUCACGGCGGAUGCCUCCAAA	< 1e-05				
AUAAAAGCGCCAGAACUACAGAAAUGUAGUUGACGAGGAGGAGGUUUAUCGAAUUCUCGGCGGAUGCCUGCAAA	< 1e-05			< 1e-05	
AUAAAAGCGCCAGAACUACAGAAAUGUAGUUGACGAGGAGGAGGUUUAUCGACUUUUCGUCCGAUGCCGCCAAA	< 1e-05				
AUAAAAGCGCCAGAACUACAGAAAUGUAGUUGACGAGGAGGAGGUUUAUCGUAUUUUCGGCUGAUGCCUCCAAA	< 1e-05	< 1e-05	< 1e-05	< 1e-05	
AUAAAAGCGCCAGAACUACAGAAAUGUAGUUGACGAGGAGGAGGUUUAUCGAAUCUUCGCCGGAUGCCUCCAAA	< 1e-05		< 1e-05		
AUAAAAGCGCCAGAACUACAGAAAUGUAGUUGACGAGGAGGAGGUUUAUCGACUUUUGGGCGGAUGCCUCCAAA	< 1e-05				
AUAAAAGCGCCAGAACUACAGAAAUGUAGUUGACGAGGAGGAGGUUUAUCGUAUUUUCAGGGGAUGCCUCCAAA	< 1e-05	< 1e-05			
AUAAAAGCGCCAGAACUACAGAAAUGUAGUUGACGAGGAGGAGGUUUAUCGAACUUUCGCCGGAUGCCUCCAAA	< 1e-05	< 1e-05	< 1e-05		< 1e-05
AUAAAAGCGCCAGAACUACAGAAAUGUAGUUGACGAGGAGGAGGUUUAUCGAAUUUACGGGGGAUGCCUCCAAA	< 1e-05				
AUAAAAGCGCCAGAACUACAGAAAUGUAGUUGACGAGGAGGAGGUUUAUCGAAAUUUCCGCGGAUGCCUCCAAA	< 1e-05			< 1e-05	< 1e-05
AUAAAAGCGCCAGAACUACAGAAAUGUAGUUGACGAGGAGGAGGUUUAUCGACUUUUCGCCGGAUGCCUCCAAA	< 1e-05			< 1e-05	< 1e-05
AUAAAAGCGCCAGAACUACAGAAAUGUAGUUGACGAGGAGGAGGUUUAUCGACUUUUCGACGGAUGCCUCCAAA	< 1e-05				< 1e-05
AUAAAAGCGCCAGAACUACAGAAAUGUAGUUGACGAGGAGGAGGUUUAUCGAGUUUUCGCCGGAUGCCUGCAAA	< 1e-05		< 1e-05		
AUAAAAGCGCCAGAACUACAGAAAUGUAGUUGACGAGGAGGAGGUUUAUCGUAUUUUCCGCGCAUGCCUCCAAA	< 1e-05		< 1e-05		

Variant	self-cleavage kobs at 40 uM GlcN6P (glucosamine-6-phosphate [1]) [s⁻¹]	self-cleavage kobs at 2500 uM GlcN6P (glucosamine-6-phosphate [2]) [s⁻¹]	self-cleavage kobs at 10000 uM GlcN6P (glucosamine-6-phosphate [3]) [s⁻¹]	self-cleavage kobs at 640 uM GlcN6P (glucosamine-6-phosphate [4]) [s⁻¹]	self-cleavage kobs at 160 uM GlcN6P (glucosamine-6-phosphate [5]) [s⁻¹]
AUAAAAGCGCCAGAACUACAGAAAUGUAGUUGACGAGGAGGAGGUUUAUCGUAUUUUCGGUGGAUGCCUCCAAA	< 1e-05		< 1e-05	< 1e-05	< 1e-05
AUAAAAGCGCCAGAACUACAGAAAUGUAGUUGACGAGGAGGAGGUUUAUCGAAAUUUCGGCGGAGGCCUCCAAA	5.78e-05 ± 9.8e-06	0.001 ± 0.00025	0.00358 ± 0.00043	0.000927 ± 0.00015	0.000211 ± 3.9e-05
AUAAAAGCGCCAGAACUACAGAAAUGUAGUUGACGAGGAGGAGGUUUAUCGAAUUUAGGGCGGAUGCCUCCAAA	< 1e-05				
AUAAAAGCGCCAGAACUACAGAAAUGUAGUUGACGAGGAGGAGGUUUAUCGAAUUAUCGGCGGUUGCCUCCAAA	< 1e-05				
AUAAAAGCGCCAGAACUACAGAAAUGUAGUUGACGAGGAGGAGGUUUAUCGAAUUAUCGGCGGAGGCCUCCAAA	3.75e-05 ± 1.4e-05		0.00196 ± 0.00027	0.000348 ± 0.00011	
AUAAAAGCGCCAGAACUACAGAAAUGUAGUUGACGAGGAGGAGGUUUAUCGAAUUAUCGACGGAUGCCUCCAAA	< 1e-05				
AUAAAAGCGCCAGAACUACAGAAAUGUAGUUGACGAGGAGGAGGUUUAUCGAAAUUUCGGUAGAUGCCUCCAAA	< 1e-05		< 1e-05	< 1e-05	
AUAAAAGCGCCAGAACUACAGAAAUGUAGUUGACGAGGAGGAGGUUUAUCGAUUUUUCGGCGGAUGACUCCAAA	0.000214 ± 2.6e-05			0.0014 ± 0.00022	0.000559 ± 8.4e-05
AUAAAAGCGCCAGAACUACAGAAAUGUAGUUGACGAGGAGGAGGUUUAUCGAGUCUUCGGCGGAUGCCUCCAAA	0.000669 ± 7.9e-05	0.0106 ± 0.0024	0.0167 ± 0.0032	0.00872 ± 0.0013	0.00157 ± 0.00027
AUAAAAGCGCCAGAACUACAGAAAUGUAGUUGACGAGGAGGAGGUUUAUCGAAUCUUCGGCGUAUGCCUCCAAA	< 1e-05				
AUAAAAGCGCCAGAACUACAGAAAUGUAGUUGACGAGGAGGAGGUUUAUCGAAUUAGCGGCGGAUGCCUCCAAA	< 1e-05				
AUAAAAGCGCCAGAACUACAGAAAUGUAGUUGACGAGGAGGAGGUUUAUCGAAUUAUCGGCGGAUGCUUCCAAA	0.000143 ± 2.2e-05			0.000955 ± 0.00014	0.000404 ± 8.3e-05
AUAAAAGCGCCAGAACUACAGAAAUGUAGUUGACGAGGAGGAGGUUUAUCGAAUGUGCGGCGGAUGUCUCCAAA	< 1e-05				
AUAAAAGCGCCAGAACUACAGAAAUGUAGUUGACGAGGAGGAGGUUUAUCGAACUAUCGGCGGAUGCCUCCAAA	0.000356 ± 6.9e-05	0.00483 ± 0.00092	0.0163 ± 0.0038	0.00291 ± 0.00036	0.000584 ± 0.00011
AUAAAAGCGCCAGAACUACAGAAAUGUAGUUGACGAGGAGGAGGUUUAUCGAAUUGUCGGCGUAUGCCUCCAAA	< 1e-05				
